Test results from PubChem BioAssay AID743279 (National Center for Advancing Translational Sciences (NCATS), 2014).
Values joined by “and” are separate entries in the source; they are usually repeats but may differ in a detail not shown here. Equal values may be shown once. Among all 360,000 compounds or so, about 17,000 (4.7%) were called active. The inconclusive results got no clear call from the source; some entries with a clear call stand among them for comparison. No stated cut-off is given here; in the data, active means activity change below about -50%; inconclusive means mostly about -30% to -49%; inactive means weaker than that.

assay: qHTS for Inhibitors of Inflammasome Signaling: IL-1-beta AlphaLISA Primary Screen; conditions: THP-1 LPS/ATP IL-1B secretion, 16 h; at 57.5 µM, stronger effect = lower value
Outline: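 THP-1 cells pretreated 1 hr with compounds (up to 57.5 uM final), then stimulated with LPS (250 ng/mL final) plus ATP (1.25 mM final); secreted IL-1B measured by AlphaLISA after 16 hr, decreased signal indicating inhibition.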
On the % scale 0 is the no-effect control and ±100 the full control effect.

Row | SMILES | activity change
1 | O=C(Nc1ccc(N2CCN(C(=O)c3ccco3)CC2)cc1)c1ccccc1Br | active: -62.3%
2 | CCOC(=O)/C=C/C(=O)Nc1ccc(-c2nnc3n2CCCCC3)cc1 | inconclusive: -48.2%
3 | O=Nc1ccc(NO)c2ccccc12 | inactive: -6.76%
4 | NC1=NC(c2ccc([N+](=O)[O-])cc2)N(c2ccc(F)cc2)C(N)=N1 (stereo unspecified) | active: -52.3%
5 | COc1ccc(C(=O)CN2C(=O)c3ccccc3C2=O)c(OC)c1 | inactive: -14.6%
6 | Cc1ccc(C)c(CC(=O)N2CCCC(c3cc(C(=O)NCc4cccnc4)no3)C2)c1 (stereo unspecified) | inactive: 2.79%
7 | Cc1ccc2nccc(C(=O)N3CCCC(Nc4ccc(C)c(C)c4)C3)c2c1 (stereo unspecified) | inactive: 2.47%
8 | O=C(CC1SC(=Nc2ccccc2)N(CCc2c[nH]c3ccccc23)C1=O)Nc1ccccc1F (stereo unspecified) | active: -80.2%
9 | CCN(C(=O)CN1C(=O)CN(C)C1=O)c1cccc2ccccc12 | inconclusive: -34.9%
10 | CCn1ccnc1C(O)c1cccc2ccccc12 (stereo unspecified) | inconclusive: -34%
11 | CC(C)Cn1cc(-c2cncc3nccn23)cn1 | inactive: -7.82%
12 | O=C(CSc1nc2ccccc2c(=O)n1-c1cccc(C(F)(F)F)c1)NC1CC1 | inconclusive: -35%
13 | N#Cc1c2c(c(NCCCN3CCOCC3)n3c1nc1ccccc13)CCC2 | inconclusive: -38%
14 | Cc1cccc(NC(=O)C2CCN(S(=O)(=O)c3c(C)noc3/C=C/c3ccco3)CC2)n1 | inconclusive: -31.7%
15 | CN1CCc2nc3sc(C(=O)NCc4ccccc4)c(N)c3cc2C1 | inactive: -8.24%
16 | COc1ccccc1-n1c(SC(C)C(=O)NCC2CCCO2)nc2cc(Cl)ccc2c1=O (stereo unspecified) | inactive: -6.52%
17 | CC(=O)N1CCN(C(=O)CCN(c2ccccc2)S(=O)(=O)c2ccc(C)cc2)CC1 | inactive: 3.85%
18 | CC1CC(C)CN(C(CCc2ccccc2)C(=O)NC2CCCCC2)C1 (stereo unspecified) | inactive: 6.9%
19 | Cc1cc(N2CCN(C)CC2)nc(-c2ccccc2O)n1 | inconclusive: -37.3%
20 | Nc1[nH]c(C(=O)c2ccccc2)c(-c2ccc(Br)cc2)c1C(=O)NCCc1c[nH]c2ccccc12 | inconclusive: -40.4%
21 | CCN(CC)S(=O)(=O)c1ccc2c(c1)nc(CCC(=O)Nc1cccc(C(F)(F)F)c1)n2CC | inconclusive: -32%
22 | O=C(Nc1ccc(S(=O)(=O)N2CCOCC2)cc1)c1ccc(Cl)c([N+](=O)[O-])c1 | active: -96.1%

Row | SMILES | activity change
23 | CC1CCCCN1CCNC(=O)Cn1nc(-c2ccccc2)ccc1=O (stereo unspecified) | inactive: 0%
24 | CC1CN(C(=O)CCC(=O)NCc2ccc(Cl)cc2)c2ccccc2S1 (stereo unspecified) | inactive: -5.24%
25 | COc1ccc(C(CNC(=O)Cc2ccccc2Cl)N2CCCCC2)cc1 (stereo unspecified) | active: -52.3%
26 | Cn1c2ccccc2c(=O)c2cc(NCCCN3CCOCC3)ccc21 | inconclusive: -43.9%
27 | FC(F)(F)c1cccc(-c2nc(COc3ccc(Cl)cc3Cl)no2)c1 | inconclusive: -44.8%
28 | N=C(N)SCc1nc2ccccc2c(=O)n1-c1ccccc1Cl | inconclusive: -31%
29 | Cc1[nH]n(-c2ncc(-c3ccccc3)s2)c(=O)c1C(c1ccc(Cl)cc1)C(C#N)C#N (stereo unspecified) | active: -63.6%
30 | COc1ccc(/C=C(\C#N)C(=O)Nc2cc(S(=O)(=O)N3CCCCC3)ccc2N2CCCCC2)cc1 | inconclusive: -38.9%
31 | O=C(c1ccc(NC(=O)C(c2ccccc2)c2ccccc2)cc1)c1ccc(C(=O)O)c(C(=O)O)c1 | inactive: 8.14%
32 | CC(C)OC(=O)c1cn(-c2ccccc2)nc1-c1ccco1 | active: -89.8%
33 | CCn1cc(/C=C(\NC(=O)c2ccccc2F)C(=O)NCCCn2ccnc2)c2ccccc21 | inconclusive: -43.4%
34 | CSc1ccc(Cn2c(C)c(C(=O)NCc3cccc(Cl)c3)sc2=O)cc1 | inconclusive: -47.8%
35 | CC(C)CCC(CCNCc1ccccn1)c1ccc(Cl)cc1 (stereo unspecified) | active: -97.9%
36 | Cc1cccc(CN(C)C)c1CC(O)(c1ccccc1)c1ccccc1 | inactive: -3.66%
37 | O=C(CSc1ccc(Br)cc1)N1CCN(S(=O)(=O)c2ccccc2)CC1 | inactive: -8.72%
38 | COc1ccccc1NS(=O)(=O)c1cc(NC(=O)COc2ccccc2F)ccc1N1CCOCC1 | inactive: -6.56%
39 | CN(C)C(CNC(=O)c1cccc(S(=O)(=O)N2CCN(c3ccc(F)cc3)CC2)c1)c1ccccc1 (stereo unspecified) | active: -74.2%
40 | CCC1C(=O)C[C@H]2CCN3C(=O)CCCC1C23 (stereo partly specified) | inactive: 10.5%
41 | COc1cc(N)c(Cl)cc1C(=O)N[C@H]1CCN(CCCOc2ccc(F)cc2)C[C@H]1OC | inactive: -24.4%
42 | Cc1nn(C(C)C(=O)Nc2sc3c(c2C#N)CCCC3)c(C)c1[N+](=O)[O-] (stereo unspecified) | inconclusive: -44.7%
43 | OC(c1ccc(Cl)c(Cl)c1)c1ncc(-c2ccc(Cl)cc2)[nH]1 (stereo unspecified) | inconclusive: -39.9%
44 | CCCS(=O)(=O)NC(=O)C1(C)CCCN(C(=O)c2ccc(F)cc2Cl)C1 (stereo unspecified) | inactive: 29.7%

Row | SMILES | activity change
45 | Cc1ccc(NC(=O)COc2ccc(-n3ccnc3)cc2)cc1Cl | inconclusive: -37.5%
46 | Cc1ccc(NC(=S)N2CCC(c3nc4ccccc4s3)CC2)cc1C | active: -65.2%
47 | CCN(CC(=O)NCCc1ccc(S(N)(=O)=O)cc1)Cc1nc2cc(OC)c(OC)cc2c(=O)[nH]1 | inactive: 20.3%
48 | O=C(CCl)NCCN1C(=O)S/C(=C\c2cccnc2)C1=O | active: -70.4%
49 | C=CCC[C@H](Cc1ccc(F)cc1)C(=O)OC[C@@H](NC(=O)[C@@H](CC=C)CC(=O)N[C@@H](CO)Cc1ccccc1)C(C)(C)C | active: -59.5%
50 | CC(C)Nc1ncnc2c1cnn2-c1ccc(Cl)cc1 | active: -58.5%
51 | Cc1cc(=O)oc2c(C)c(OCC(=O)NC3CCN(Cc4ccccc4)CC3)ccc12 | inconclusive: -42.8%
52 | CCCCn1c(=N)n(CC(O)COc2ccc(C)cc2)c2ccccc21 (stereo unspecified) | active: -73.2%
53 | Cc1ccc(C(C[N+](=O)[O-])c2c(N)n(C)c(=O)n(C)c2=O)cc1 (stereo unspecified) | inconclusive: -37.1%
54 | COc1cccc(NC(=O)C(Cc2ccccc2)n2cccc2)c1 (stereo unspecified) | active: -73%
55 | Cc1c(NC(=O)C(C)OC(=O)c2cccnc2Cl)c(=O)n(-c2ccccc2)n1C (stereo unspecified) | inactive: 12.3%
56 | CC(C)(C)c1ccc(C(=O)Nc2ccc(F)cc2)s1 | active: -61.8%
57 | CN(C)S(=O)(=O)c1ccc(C(=O)NNc2nc(-c3ccccc3)c3cc(Br)ccc3n2)cc1 | active: -60.4%
58 | CCn1c(CNc2ccccc2Cl)nnc1SCC(=O)OC1CCCCC1 | inconclusive: -35.4%
59 | Cc1ccc(C(=O)Nc2ccncc2)o1 | inconclusive: -30.4%
60 | COc1ccccc1NS(=O)(=O)c1ccc2oc(SC(C)C(=O)N3CCNC3=O)nc2c1 (stereo unspecified) | inconclusive: -37.5%
61 | COc1ccc2nc(NC(=O)c3ccc(Br)s3)sc2c1 | inconclusive: -41.8%
62 | COc1ccc(-c2ccc(C(=S)N3CCN(C(C)=O)CC3)o2)cc1 | inconclusive: -46.8%
63 | O=C(NNc1ccc(C(F)(F)F)cc1[N+](=O)[O-])c1ccc(NS(=O)(=O)c2ccc(F)cc2)cc1 | inconclusive: -39.2%
64 | COc1cccc(C(C(=O)NC2CCCC2)N(C(=O)c2ccco2)c2ccccc2)c1OC (stereo unspecified) | inconclusive: -44.2%
65 | Cc1cccc(N(CC(=O)NC2CCCCC2)C(=O)c2ccc(C)s2)c1 | inconclusive: -46.4%
66 | CC1CC2(C)Oc3ccccc3CC2C(C)C1CNCCCN(C)C (stereo unspecified) | inconclusive: -46.4%

Row | SMILES | activity change
67 | COc1ccc(C2(c3ccc(O)cc3O)CC(c3ccccc3Cl)NC(=S)N2)cc1 (stereo unspecified) | active: -90.4%
68 | CC(C)(C)NC(=O)C(=O)NNC(=O)c1cccc(F)c1 | inconclusive: -35.1%
69 | COCC(C)n1c(C)cc(C(=O)CSc2cc(C)c3ccccc3n2)c1C (stereo unspecified) | inconclusive: -36.9%
70 | CCC(C)c1ccc(NC(=O)C2CC3CCC2C3)cc1 (stereo unspecified) | active: -55.3%
71 | COc1ccccc1/C=C/C(=O)Nc1ccc2c(c1)OCCO2 | active: -58.1%
72 | COc1cc(NC2c3ccccc3C(=O)N2Cc2ccc3c(c2)OCO3)cc(OC)c1 (stereo unspecified) | inconclusive: -32.3%
73 | Cc1nn(Cc2c(F)c(F)c(F)c(F)c2F)c(C)c1NC(=O)c1ccc(COc2ccc(F)cc2)o1 | inconclusive: -46.3%
74 | O=C1C2C3C=CC(C4CC34)C2C(=O)N1/N=C/c1c[nH]c2ccccc12 (stereo unspecified) | inconclusive: -38.5%
75 | O=[N+]([O-])c1cc(/C=N/OCc2c(Cl)cccc2Cl)ccc1N1CCOCC1 | inconclusive: -31.6%
76 | Cn1c(OCc2cccnc2)nc2c1c(=O)n(Cc1ccc(Br)cc1)c(=O)n2C | active: -52.5%
77 | CCN(CC)CCNC(=O)c1sc2ncn(CC(=O)Nc3ccc(C)c(Cl)c3)c(=O)c2c1C | active: -75.6%
78 | Cc1ccc(C(=O)O/N=C(\N)c2ccccn2)c(C)c1 | inconclusive: -30.7%
79 | C1CCC(c2nn3c(-c4n[nH]c5c4CCC5)nnc3s2)CC1 | inconclusive: -40.8%
80 | CC(=O)Nc1ccc(NC(=O)CCn2c(=S)oc3ccccc32)cc1 | inactive: 4.54%
81 | CC(CCc1ccccc1)NC(=O)COC(=O)c1ccccc1O (stereo unspecified) | inactive: 12.8%
82 | Cn1nc(C(F)(F)F)c(C(=O)Nc2ccc(C(F)(F)F)cc2)c1Cl | inconclusive: -30.2%
83 | Cc1ccc(-n2c(C)cc(C(=O)CN3CCOCC3)c2C)cc1 | inactive: 15.8%
84 | COc1cccc(C2Nc3ccccc3NC3=C2C(=O)CC(C)(C)C3)c1OC (stereo unspecified) | inactive: -2.84%
85 | CCCc1[nH]n(-c2ccc([N+](=O)[O-])cc2)c(=O)c1C=NCCc1ccc(OC)c(OC)c1 | inactive: 0.45%
86 | CCOC(=O)C1=C(C)NC(C)=C(C(=O)OCC)C1C(=O)OCC(=O)N1c2ccccc2CC1C (stereo unspecified) | inconclusive: -34.7% and inconclusive: -38.1%
